Experimental data as given in article PMC4913924 (PLoS ONE, 2016).

Target: anti-EGFR GA201 mAb (human IgG1) (human)
Assay: SPR; ProteOn XPR36; antibodies at 50 μg/mL immobilised on a GLC sensor chip by amine coupling; serial dilutions of FcγRIIIA isoforms in PBS, pH 7.4, 0.005% Tween 20, 3 mM EDTA passed over; KD from steady-state equilibrium binding
Settings: both partners purified

B1: recombinant human FcγRIIIA, high-affinity isoform 158V (receptor)
chain: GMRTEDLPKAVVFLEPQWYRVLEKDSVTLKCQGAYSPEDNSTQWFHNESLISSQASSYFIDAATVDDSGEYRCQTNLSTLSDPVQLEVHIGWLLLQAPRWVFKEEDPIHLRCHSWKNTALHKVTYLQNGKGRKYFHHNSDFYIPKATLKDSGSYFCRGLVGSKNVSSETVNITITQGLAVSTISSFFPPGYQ
modifications: Natural V158 allotype (precursor V176, historical offset 18). Soluble ectodomain assumed because the recombinant receptor was used as SPR analyte; limits are not printed and are taken from the …
**Q.** B1 was tested. Which Kd did it give?
**A.** The Kd was 165 nM.
